In this experiment the target is T1, FlAsH-labelled M1-linked diUb (UniProt P0CG47 partial chain; P0CG47 partial chain, FlAsH label (position not given)).
T1 construct: ubiquitin, distal moiety of Met1-linked (linear) diubiquitin; its C-terminus is joined to Met1 of the next ubiquitin; ubiquitin, proximal moiety of Met1-linked (linear) diubiquitin; also called linear diubiquitin
In words: fluorescence polarisation; FlAsH-labelled M1-linked diUb with recombinant catalytically inactive OTULIN; performed as in Keusekotten et al, 2013; technical triplicate. The settings on record: both partners purified. On the technique in general: Fluorescence polarisation rises when a labelled molecule tumbles more slowly, as on binding a larger partner.

B1: OTULIN^C129A/G281R (enzyme)
chain: not shown
notes: Construct limits may stand in the Appendix Supplementary Methods; source: E. coli, purified (as described in Elliott et al, 2014)
A word on the Kd: it is the free concentration of one partner at which half of the binding sites on the other are occupied at equilibrium, for simple one-to-one binding. With B1, the dissociation constant Kd amounted to 9.3 µM.

B2: catalytically inactive OTULIN^C129A (enzyme)
chain: not shown
notes: also called OTU family deubiquitinase with linear Ub specificity; FAM105B; source: E. coli, purified (as described in Elliott et al, 2014)
On to B2, for which the Kd came out at 0.085 µM.

Values taken from paper PMC6404114, “OTULIN deficiency in ORAS causes cell type‐specific LUBAC degradation, dysregulated TNF signalling and cell death” (EMBO Molecular Medicine, 2019).
